From the supplement of paper PMC12015411

Test system: Escherichia coli BW25113
Assay: growth relative to no-drug wells (fraction of no-drug control); higher = more growth, less inhibition
Procedure: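 8 x 8 checkerboard in cation-adjusted Mueller-Hinton broth at 37 °C; OD600 at the end of exponential growth as a fraction of no-drug wells, two biological replicates.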

CC1(C)S[C@@H]2[C@H](/N=C/N3CCCCCC3)C(=O)N2[C@H]1C(=O)O [Mecillinam] + Oc1ccc([N+](=O)[O-])c2cccnc12 [nitroxoline]
growth
Conditions	nitroxoline concentration 0.136 µg/ml	nitroxoline concentration 0.255 µg/ml	nitroxoline concentration 0.374 µg/ml	nitroxoline concentration 0.493 µg/ml	nitroxoline concentration 0.612 µg/ml	nitroxoline concentration 0.731 µg/ml	nitroxoline concentration 0.85 µg/ml
0.0008 µg/ml	1	0.9978	0.733	0.405	0.48	0.366	0.305
0.0013 µg/ml	1	0.973	0.751	0.58	0.462	0.343	0.283
0.0015 µg/ml	1	0.967	0.782	0.557	0.493	0.379	0.295
0.0025 µg/ml	1	1	0.868	0.591	0.448	0.3772	0.296
0.003 µg/ml	1	1	0.9744	0.62	0.506	0.345	0.303
0.005 µg/ml	0.9971	1	0.9114	0.708	0.5	0.392	0.337
0.006 µg/ml	0.909	0.835	0.667	0.514	0.42	0.357	0.34

C[C@@H](O)[C@H]1C(=O)N2C(C(=O)O)=C(S[C@@H]3CN[C@H](C(=O)N(C)C)C3)[C@H](C)[C@H]12 [Meropenem]
nitroxoline concentration 0 µg/ml
Conditions	growth
0.0562 µg/ml	0.891
0.0968 µg/ml	0.777
0.1125 µg/ml	0.811
0.1935 µg/ml	0.4659
0.225 µg/ml	0.219
0.387 µg/ml	0.0341
0.45 µg/ml	0.0369

C[C@@H](O)[C@H]1C(=O)N2C(C(=O)O)=C(S[C@@H]3CN[C@H](C(=O)N(C)C)C3)[C@H](C)[C@H]12 [Meropenem] + Oc1ccc([N+](=O)[O-])c2cccnc12 [nitroxoline]
growth
Conditions	nitroxoline concentration 0.136 µg/ml	nitroxoline concentration 0.255 µg/ml	nitroxoline concentration 0.374 µg/ml	nitroxoline concentration 0.493 µg/ml	nitroxoline concentration 0.612 µg/ml	nitroxoline concentration 0.731 µg/ml	nitroxoline concentration 0.85 µg/ml
0.0562 µg/ml	0.85	0.816	0.785	0.648	0.581	0.497	0.453
0.0968 µg/ml	0.822	0.813	0.736	0.6043	0.534	0.513	0.502
0.1125 µg/ml	0.761	0.731	0.6707	0.61	0.551	0.514	0.489
0.1935 µg/ml	0.675	0.6282	0.657	0.576	0.513	0.467	0.433
0.225 µg/ml	0.551	0.591	0.615	0.533	0.527	0.475	0.448
0.387 µg/ml	0.16	0.27	0.295	0.331	0.342	0.345	0.297
0.45 µg/ml	0.0412	0.114	0.213	0.241	0.232	0.2833	0.246

CN(C)c1ccc(O)c2c1C[C@H]1C[C@H]3[C@H](N(C)C)C(O)=C(C(N)=O)C(=O)[C@@]3(O)C(O)=C1C2=O [Minocycline]
nitroxoline concentration 0 µg/ml
Conditions	growth
0.0125 µg/ml	1
0.0215 µg/ml	1
0.025 µg/ml	1
0.043 µg/ml	1
0.05 µg/ml	1
0.086 µg/ml	1
0.1 µg/ml	1

CN(C)c1ccc(O)c2c1C[C@H]1C[C@H]3[C@H](N(C)C)C(O)=C(C(N)=O)C(=O)[C@@]3(O)C(O)=C1C2=O [Minocycline] + Oc1ccc([N+](=O)[O-])c2cccnc12 [nitroxoline]
growth
Conditions	nitroxoline concentration 0.136 µg/ml	nitroxoline concentration 0.255 µg/ml	nitroxoline concentration 0.374 µg/ml	nitroxoline concentration 0.493 µg/ml	nitroxoline concentration 0.612 µg/ml	nitroxoline concentration 0.731 µg/ml	nitroxoline concentration 0.85 µg/ml
0.0125 µg/ml	1	1	0.799	0.53	0.603	0.505	0.332
0.0215 µg/ml	1	1	0.849	0.744	0.591	0.4721	0.341
0.025 µg/ml	1	1	1	0.732	0.633	0.515	0.357
0.043 µg/ml	1	1	1.002	0.771	0.642	0.524	0.375
0.05 µg/ml	1	1	1.01	0.746	0.663	0.55	0.348
0.086 µg/ml	1	1	0.927	0.797	0.587	0.4814	0.378
0.1 µg/ml	1	1	0.837	0.624	0.512	0.471	0.397

O=C1CN(/N=C/c2ccc([N+](=O)[O-])o2)C(=O)N1 [Nitrofurantoin]
nitroxoline concentration 0 µg/ml
Conditions	growth
0.75 µg/ml	0.877
1.29 µg/ml	0.89
1.5 µg/ml	0.942
2.58 µg/ml	0.834
3 µg/ml	0.795
5.16 µg/ml	0.0555
6 µg/ml	0.135

O=C1CN(/N=C/c2ccc([N+](=O)[O-])o2)C(=O)N1 [Nitrofurantoin] + Oc1ccc([N+](=O)[O-])c2cccnc12 [nitroxoline]
growth
Conditions	nitroxoline concentration 0.136 µg/ml	nitroxoline concentration 0.255 µg/ml	nitroxoline concentration 0.374 µg/ml	nitroxoline concentration 0.493 µg/ml	nitroxoline concentration 0.612 µg/ml	nitroxoline concentration 0.731 µg/ml	nitroxoline concentration 0.85 µg/ml
0.75 µg/ml	1	1	0.896	0.725	0.615	0.551	0.546
1.29 µg/ml	1	0.98	0.906	0.733	0.604	0.586	0.548
1.5 µg/ml	1	0.966	0.871	0.716	0.589	0.573	0.564
2.58 µg/ml	0.755	0.815	0.742	0.645	0.517	0.522	0.464
3 µg/ml	0.703	0.7	0.643	0.604	0.553	0.501	0.494
5.16 µg/ml	0.162	0.0664	0.142	0.0484	0.0184	0.0456	0.0447
6 µg/ml	0.15	0.0547	0.154	0.0536	0.0141	0	0.0219

CO[C@@H]1[C@@H](OC(N)=O)[C@@H](O)[C@H](Oc2ccc3c(O)c(NC(=O)c4ccc(O)c(CC=C(C)C)c4)c(=O)oc3c2C)OC1(C)C [Novobiocin]
nitroxoline concentration 0 µg/ml
Conditions	growth
3.9916 µg/ml	1
7.493 µg/ml	1
10.9944 µg/ml	1
14.4958 µg/ml	0.9931
17.9972 µg/ml	0.9947
21.4986 µg/ml	0.91
25 µg/ml	0.78

CO[C@@H]1[C@@H](OC(N)=O)[C@@H](O)[C@H](Oc2ccc3c(O)c(NC(=O)c4ccc(O)c(CC=C(C)C)c4)c(=O)oc3c2C)OC1(C)C [Novobiocin] + Oc1ccc([N+](=O)[O-])c2cccnc12 [nitroxoline]
growth
Conditions	nitroxoline concentration 0.136 µg/ml	nitroxoline concentration 0.255 µg/ml	nitroxoline concentration 0.374 µg/ml	nitroxoline concentration 0.493 µg/ml	nitroxoline concentration 0.612 µg/ml	nitroxoline concentration 0.731 µg/ml	nitroxoline concentration 0.75 µg/ml
3.9916 µg/ml	0.962	1	1	0.973	0.874	0.747	0.64571
7.493 µg/ml	0.981	0.975	0.965	0.666	0.859	0.6619	0.686
10.9944 µg/ml	0.9937	0.932	0.72	0.69	0.691	0.656	0.562
14.4958 µg/ml	0.957	0.961	0.677	0.709	0.691	0.565	0.537
17.9972 µg/ml	0.916	0.917	0.464	0.441	0.529	0.509	0.442
21.4986 µg/ml	0.976	0.714	0.4131	0.528	0.497	0.511	0.422
25 µg/ml	0.883	0.562	0.245	0.457	0.468	0.462	0.399

CCN1CCN(C(=O)N[C@@H](C(=O)N[C@@H]2C(=O)N3[C@@H]2SC(C)(C)[C@@H]3C(=O)O)c2ccccc2)C(=O)C1=O [Piperacillin]
nitroxoline concentration 0 µg/ml
Conditions	growth
1.1176 µg/ml	0.96
2.098 µg/ml	0.946
3.0784 µg/ml	0.766
4.0588 µg/ml	0.609
5.0392 µg/ml	0.311
6.0196 µg/ml	0.15
7 µg/ml	0.0323

CCN1CCN(C(=O)N[C@@H](C(=O)N[C@@H]2C(=O)N3[C@@H]2SC(C)(C)[C@@H]3C(=O)O)c2ccccc2)C(=O)C1=O [Piperacillin] + Oc1ccc([N+](=O)[O-])c2cccnc12 [nitroxoline]
growth
Conditions	nitroxoline concentration 0.12 µg/ml	nitroxoline concentration 0.225 µg/ml	nitroxoline concentration 0.33 µg/ml	nitroxoline concentration 0.435 µg/ml	nitroxoline concentration 0.54 µg/ml	nitroxoline concentration 0.645 µg/ml	nitroxoline concentration 0.75 µg/ml
1.1176 µg/ml	0.876	0.665	0.75	0.815	0.699	0.611	0.526
2.098 µg/ml	0.893	0.878	0.9019	0.834	0.721	0.57	0.5124
3.0784 µg/ml	0.551	0.631	0.819	0.735	0.537	0.27	0.119
4.0588 µg/ml	0.562	0.547	0.647	0.565	0.299	0.0517	0.0617
5.0392 µg/ml	0.412	0.429	0.433	0.345	0.0864	0.0444	0.0599
6.0196 µg/ml	0.19	0.191	0.327	0.183	0.0622	0.0504	0.0487
7 µg/ml	0.029	0.0325	0.174	0.113	0.081	0.0535	0.0385

Bacterial growth in Mueller-Hinton broth at 37 °C with the drug at the dose given, alone or with nitroxoline. Checkerboards on E. coli BW25113: OD600 at the end of exponential growth as a fraction of no-drug wells. Colistin series: OD595 at 10.75 h as a fraction of the colistin-free well. 1 = full growth, lower = more inhibition. No active / inactive call per well. Checkerboard doses stop near each drug's IC75, and their values pile up at 1, as if capped there. Colistin and gentamicin are mixtures; one drawing stands for each.
